The supplement of paper PMC10600219
Values joined by “and” are separate entries in the source; they are usually repeats but may differ in a detail not shown here. Identical values can stand only once. Counter-ions that a name gives are not always drawn. ± gives the standard deviation of the averaged measurements. Over roughly 2,800 compounds, “cell viability relative to vehicle” has its median near 0.98; the lowest 2% begin near 0.45. This is one part of the list.

The compounds below were run on NCI-H2228 alectinib-DTP (assay: cell viability relative to vehicle (fraction of vehicle); NCI-H2228 is an ALK-positive lung cancer line and DTP means drug-tolerant persister; higher = less growth inhibition). Conditions: 100 nM; treatment time 6 days.
In short: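 NCI-H2228 parental cells and drug-tolerant persister cells were plated in 384-well plates; the persisters had been generated with 1000 nM of a targeted drug over 13 days. One day later, the 3114-agent TargetMol anti-cancer compound library was added at 100 nM, with DMSO serving as vehicle. ATP was measured 6 days after that using the CellTiter-Glo 3D Cell Viability Assay. Values are cell viability expressed relative to vehicle-treated cells.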
`Nc1cc(C(F)(F)F)c(-c2cc(N3CCOCC3)nc(N3CCOCC3)n2)cn1` [Buparlisib] was tested, and the cell viability was 0.766. `CCOC(N)=O` [Urethane] was tested, and the cell viability was 0.983. With `Nc1ncccc1-c1nc2ccc(-c3ccccc3)nc2n1-c1ccc(C2(N)CCC2)cc1` [Miransertib] the cell viability was 0.777. `O=c1cc(N2CCOCC2)oc2c(-c3ccccc3)cccc12` showed a cell viability of 1.15. `O=C1c2cccc(O)c2C(=O)c2c(O)cccc21` [Antrapurol] was tested, and the cell viability was 0.878. In the case of `COc1ccc2cc1Oc1ccc(cc1)C[C@H]1c3cc(c(OC)cc3CCN1C)Oc1c(O)c(OC)cc3c1[C@H](C2)N(C)CC3` [Fangchinoline], the cell viability is reported as 0.967 ± 0.087. For `CN1c2ccccc2C(=O)N2CCc3c([nH]c4ccccc34)C21` (stereo in doubt) [Evodiamine], the cell viability was 0.955. With `OC(CCN1CCCCC1)(c1ccccc1)c1ccccc1` [Loxeen] the cell viability was 1.04. `COc1cc(Nc2ncc3c(n2)-c2ccc(Cl)cc2C(c2c(F)cccc2OC)=NC3)ccc1C(=O)O` [Alisertib] was tested, and the cell viability was 0.721. In the case of `CCCCC(=O)N(Cc1ccc(-c2ccccc2-c2nnn[nH]2)cc1)[C@H](C(=O)O)C(C)C` [Valsartan], the cell viability is reported as 1.04. In the case of `Cc1ccc(Nc2nccc(N(C)c3ccc4c(C)n(C)nc4c3)n2)cc1S(N)(=O)=O` [Pazopanib], the cell viability is reported as 0.894. `CCc1ccc(/C=C2/SC(=S)NC2=O)cc1` showed a cell viability of 0.947. In the case of `Cc1cc(Nc2ncnc3ccc(NC4=NC(C)(C)CO4)cc23)ccc1Oc1ccn2ncnc2c1` [Irbinitinib], the cell viability is reported as 0.906. `OCC(CO)N[C@H]1C[C@](O)(CO)[C@@H](O)[C@H](O)[C@H]1O` [Voglibose] showed a cell viability of 0.985. With `CC(C)=CCC[C@](C)(O[C@@H]1O[C@H](CO)[C@@H](O)[C@H](O)[C@H]1O)[C@H]1CC[C@]2(C)[C@@H]1[C@H](O)C[C@@H]1[C@@]3(C)CC[C@H](O[C@@H]4O[C@H](CO)[C@@H](O)[C@H](O)[C@H]4O[C@@H]4O[C@H](CO)[C@@H](O)[C@H](O)[C@H]4O)C(C)(C)[C@@H]3CC[C@]12C` [Ginsenoside Rd] the cell viability was 0.966. `C=CCNc1ncnc2ccc(Br)cc12` gave a cell viability of 1.08. With `COC(=O)/C=C/C(=O)OC` [Dimethyl fumarate] the cell viability was 1.12. `CC(C)=CCC[C@](C)(O)[C@H]1CC[C@]2(C)[C@@H]1[C@H](O)C[C@@H]1[C@@]3(C)CC[C@H](O)C(C)(C)[C@@H]3[C@@H](O[C@@H]3O[C@H](CO)[C@@H](O)[C@H](O)[C@H]3O[C@@H]3O[C@@H](C)[C@H](O)[C@@H](O)[C@H]3O)C[C@]12C` [Ginsenoside Rg2] gave a cell viability of 0.994. For `O=C(NNc1nc2cc(F)ccc2n2cccc12)c1cnccn1`, the cell viability was 0.639. `CC(C)c1cc(C(C)C)c(CC(=O)NS(=O)(=O)Oc2c(C(C)C)cccc2C(C)C)c(C(C)C)c1` [Avasimibe] gave a cell viability of 0.857. `O=C(NC(Cc1cc(=O)[nH]c2ccccc12)C(=O)O)c1ccc(Cl)cc1` (stereo not given) [Rebamipide] gave a cell viability of 0.928. In the case of `CCN1C(=O)C=CC1=O` [N-Ethylmaleimide], the cell viability is reported as 1.05. With `COc1ccc2[nH]cc(/C=C3\C(=O)Nc4ccc(NC(=O)CCN5CCCCC5)cc43)c2c1` the cell viability was 0.999. In the case of `O=C1c2c(O)ccc(O)c2C(=O)c2c(NCCNCCO)ccc(NCCNCCO)c21` [Mitoxantrone], the cell viability is reported as 0.386. Compound `CCOC(=O)c1ccc(NC2CCCCC2)c(N)c1` [Ferrostatin-1] has a cell viability of 0.967. In the case of `CC/C(=C(/c1ccc(O)cc1)c1ccc(OCCNC)cc1)c1ccccc1` [Endoxifen E-isomer hydrochloride], the cell viability is reported as 1.12. In the case of `CCCCc1ncc(/C=C(\Cc2cccs2)C(=O)O)n1Cc1ccc(C(=O)O)cc1` [Eprosartan Mesylate], the cell viability is reported as 1.08. In the case of `CCCCCCCCOc1ccccc1C(=O)Nc1ccc(C(=O)OCC[N+](C)(CC)CC)cc1` [Otilonium bromide], the cell viability is reported as 0.903. In the case of `CN1CCCN(C(=O)c2cccc(-c3ccc(/C=C4/C(=O)Nc5ccc(Cl)cc54)o3)c2)CC1`, the cell viability is reported as 0.984. In the case of `CNc1ccc([N+](=O)[O-])c(Nc2ccc3[nH]ncc3c2)n1`, the cell viability is reported as 0.991. `O=C(O)CCC(=O)c1ccc(-c2ccccc2)cc1` [Fenbufen] showed a cell viability of 0.95. `CC(CNC(=O)c1cccnc1)NC(=O)c1cccnc1` (stereo not given) [Nicaraven] gave a cell viability of 1.07. With `COc1ccc(/C=C/C(=O)NO)c(-c2ccc(-c3ccccc3)cc2)c1` the cell viability was 1.03. With `CN(c1ncccc1CNc1nc(Nc2ccc3c(c2)CC(=O)N3)ncc1C(F)(F)F)S(C)(=O)=O` the cell viability was 0.934 and 1.16. In the case of `CCOC(=O)c1cc(O)c(O)c(O)c1` [Ethyl gallate], the cell viability is reported as 0.912. For `CN(C)CCc1c[nH]c2ccc(CS(=O)(=O)N3CCCC3)cc12` [Almotriptan Malate], the cell viability was 0.96. In the case of `Cc1cccc(N(C)C(=S)Oc2ccc3ccccc3c2)c1` [Tolnaftate], the cell viability is reported as 1.23. `CCCCC/C=C\C/C=C\CCCCCCCC(=O)O` [Linoleic acid] showed a cell viability of 0.87. `N[C@@H](COP(=O)(O)O)C(=O)O` [Phosphoserine] was tested, and the cell viability was 0.962. `CN1CCN(c2ccc3nc(-c4c(N)c5c(F)cccc5[nH]c4=O)[nH]c3c2)CC1` [Dovitinib] was tested, and the cell viability was 0.832. In the case of `COc1cc2c(cc1OC)CN(C(=O)[C@@H](NCc1ccncc1)C(C)(C)C)CC2`, the cell viability is reported as 1.05. Work on `O=c1[nH]c(=O)n([C@H]2C[C@H](O)[C@@H](CO)O2)cc1I` [Dendrid] yielded a cell viability of 0.937. With `Cc1cc(=O)c(C(=O)N[C@@H](C(=O)N[C@@H]2C(=O)N3C(C(=O)O)=C(CSc4nnnn4C)CS[C@H]23)c2ccc(O)cc2)c[nH]1` [Cefpiramide acid] the cell viability was 1.16. For `CC(=O)O[C@@H]1C[C@H](O)[C@@]23CO[C@@H](O)[C@]1(C)[C@@H]2C[C@@H](O)[C@]1(C)[C@@H]3C(=O)[C@H](OC(C)=O)[C@@]2(C)[C@H](c3ccoc3)C[C@H]3O[C@]321` [Toosendanin], the cell viability was 0.408. Compound `Nc1cc(C(F)(F)F)c(-c2nc(N3CCOCC3)nc(N3CCOCC3)n2)cn1` has a cell viability of 0.774. `COc1cc2c(NC3CCN(CC4CCCCC4)CC3)nc(N3CCCN(C(C)C)CC3)nc2cc1OCCCN1CCCCC1` showed a cell viability of 1.05. Compound `COc1ccc(-c2ccc3cc(C(=O)O)ccc3c2)cc1C12CC3CC(CC(C3)C1)C2` [Adapalene] has a cell viability of 0.983. In the case of `NNC(=O)c1ccncc1` [Isoniazid], the cell viability is reported as 1.03. For `COc1ccc(/C=C/c2cc(O)cc(O[C@@H]3O[C@H](CO)[C@@H](O)[C@H](O)[C@H]3O)c2)cc1O` [Rhaponiticin], the cell viability was 1.1. `O=C(Nc1ncc(SCCN2CCCC2)s1)[C@]1(c2ccc(S(=O)(=O)C3CC3)cc2)C[C@H]1C1CCCCC1` was tested, and the cell viability was 0.931. Work on `O=C(O)CCCN1CCC(O[C@@H](c2ccc(Cl)cc2)c2ccccn2)CC1` [Bepotastine Besilate] yielded a cell viability of 1.02. In the case of `Cc1nnc(NC(=O)c2nc(S(=O)(=O)Cc3ccc(F)cc3)ncc2Cl)s1`, the cell viability is reported as 1.02. Compound `Cc1ccc(S(=O)(=O)OCC(=O)Nc2ccc(C(=O)O)c(O)c2)cc1` has a cell viability of 0.898. `C[C@H]1C[C@H]2[C@@H]3CCC4=CC(=O)C=C[C@]4(C)[C@H]3C(=O)C[C@]2(C)[C@@]1(O)C(=O)CO` [Meprednisone] showed a cell viability of 1.12. For `COc1ccc(-c2cc(=O)c3c(OC)c(OC)c(OC)c(OC)c3o2)cc1OC` [Nobiletin], the cell viability was 0.921. With `Cc1ccc(C(=O)Nc2cccc(C(F)(F)F)c2)cc1Nc1nc(-c2cccnc2)nc2c1cnn2C` the cell viability was 0.974. `O=C(NCc1ccc(S(=O)(=O)c2cc(F)cc(F)c2)cc1)c1ccc2nccn2c1` gave a cell viability of 0.34. With `O=c1cc[nH]c(=O)[nH]1` [Uracil] the cell viability was 1.16. In the case of `CC1(C)C=Cc2c(ccc3c2OC[C@@H](c2ccc(O)cc2O)C3)O1` [Glabridin], the cell viability is reported as 1.02. In the case of `CCc1nc2c(C)cc(N3CCN(CC(=O)N4CC(O)C4)CC3)cn2c1N(C)c1nc(-c2ccc(F)cc2)c(C#N)s1`, the cell viability is reported as 1.02. `CC(C)=CCc1cc2c(cc1O)O[C@H](c1ccc(O)cc1)CC2=O` [Bavachin] was tested, and the cell viability was 1.01. In the case of `N#Cc1c(Oc2ccc(F)c(NC(=O)Cc3cccc(C(F)(F)F)c3)c2)ccc2nc(NC(=O)C3CC3)sc12`, the cell viability is reported as 1.06. In the case of `O=C1N=c2ccccc2=C1c1c(O)[nH]c2ccccc12` [Isoindigotin], the cell viability is reported as 0.934. Work on `O=C(O)c1ccc(C=C2SC(=S)N(c3cccc(C(F)(F)F)c3)C2=O)cc1` yielded a cell viability of 1.03. `COc1ccc(-c2cc(=O)c3c(OC)c(OC)c(OC)c(OC)c3o2)cc1` [Tangeretin] gave a cell viability of 0.993. Work on `C/C(=N\NC(=O)c1cccc(S(=O)(=O)N2CCN(C)CC2)c1)c1cc(Cl)ccc1O` [Seclidemstat] yielded a cell viability of 0.783. Work on `OC[C@H]1O[C@@H](Oc2cc(O)cc(/C=C/c3ccc(O[C@@H]4O[C@H](CO)[C@@H](O)[C@H](O)[C@H]4O)cc3O)c2)[C@H](O)[C@@H](O)[C@@H]1O` [Mulberroside A] yielded a cell viability of 1.1. Compound `CN1C(C(=O)Nc2ccccn2)=C(O)c2sc(Cl)cc2S1(=O)=O` [Lornoxicam] has a cell viability of 1.03. In the case of `NC[C@H]1OB(O)c2c(OCCCO)cccc21` [Epetraborole hydrochloride], the cell viability is reported as 1.11. Compound `Cc1cc(C)nc(NS(=O)(=O)c2ccc(NC(=S)NC(=O)COc3ccc(Br)cc3Cl)cc2)n1` has a cell viability of 0.789. Compound `CCOc1ccc(Cc2nccc3cc(OCC)c(OCC)cc23)cc1OCC` [Ethaverine hydrochloride] has a cell viability of 1.05. `O=C(Nc1ccc([N+](=O)[O-])cc1Cl)c1cc(Cl)ccc1O` [Niclosamide] gave a cell viability of 0.995. `O=C(Nc1cccnc1)N1CCC(Cc2cccc(Oc3ccc(C(F)(F)F)cn3)c2)CC1` was tested, and the cell viability was 0.941. Compound `Cc1cccc(-c2nn3c(c2-c2ccnc4ccc(C(N)=O)cc24)CCC3)n1` [Galunisertib] has a cell viability of 0.971. Work on `CC(C)c1nc(CN(C)C(=O)N[C@@H](CCN2CCOCC2)C(=O)N[C@H](CC[C@H](Cc2ccccc2)NC(=O)OCc2cncs2)Cc2ccccc2)cs1` [Cobicistat] yielded a cell viability of 1.02.
